The campaign covered roughly 220,000 compounds. About 2,300 (1%) were called active. The inconclusive results got no clear call from the source; some entries with a clear call stand among them for comparison. Calls follow the shape of the dose curve; as a rule, active = well fitted inhibition curve with a large enough effect; inconclusive = small, poorly fitted or top-dose-only effect, or effect the other way; inactive = no such curve, though single readings can be large or run the other way. Where the call is inconclusive, the potency comes from a doubtful curve fit.
What follows are compounds tested against Neuropeptide S receptor (Homo sapiens) (UniProt Q6W5P4) (assay: qHTS Assay for Antagonists of the Neuropeptide S Receptor: cAMP Signal Transduction). Settings: CHO-NPSR cells, cAMP TR-FRET, antagonist mode; activity change, negative = inhibition: at 38.3 µM (top of the series) unless noted.
% is scaled to controls: 0 for no effect and ±100 for the full control effect; potency is read from the fitted curve at half-maximal effect; tags tell the direction and shape of the fitted curve.
Also: nearly all actives have a fitted effect of over 50% in size.

Chain of UniProt Q6W5P4 (Q6W5P4 whole entry, looked up): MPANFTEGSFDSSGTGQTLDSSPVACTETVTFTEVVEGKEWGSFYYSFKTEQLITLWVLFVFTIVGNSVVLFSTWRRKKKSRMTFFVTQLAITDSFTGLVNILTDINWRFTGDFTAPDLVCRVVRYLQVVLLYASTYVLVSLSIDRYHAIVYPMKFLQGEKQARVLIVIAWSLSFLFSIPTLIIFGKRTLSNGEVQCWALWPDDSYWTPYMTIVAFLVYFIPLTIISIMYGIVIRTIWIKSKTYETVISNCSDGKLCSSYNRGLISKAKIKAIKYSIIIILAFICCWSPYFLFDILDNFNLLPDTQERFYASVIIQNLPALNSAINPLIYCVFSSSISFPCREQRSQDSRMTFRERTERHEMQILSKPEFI

**Q.** With `CC(C)=CCc1c2c(c3occ(-c4ccc(O)cc4)c(=O)c3c1O)C=CC(C)(C)O2` as the compound, how does the Potency read?
**A.** inconclusive: 10 µM [activator, partial curve]

**Q.** Which Potency does the source give for `CN(C(=O)COc1ccc(Br)cc1Cl)C1CCCCC1` here?
**A.** inconclusive: 10 µM [inhibitor, single point]

**Q.** Which activity change, negative = inhibition does the source give for `Cc1cc(Cl)c(S(=O)(=O)N2CCCCCC2)cc1OCC(=O)NC1CCCCC1` here?
**A.** inconclusive: -34.6% [inhibitor] [at 46.1 µM]

**Q.** For `COCCn1c(N)c(C(=O)OCc2ccccc2)c2nc3ccccc3nc21`, which “activity change, negative = inhibition” value is on record?
**A.** inactive: -16.1% [at 46.1 µM]

**Q.** With `O=C(CCCn1c(SCC(=O)NC2CCCCC2)nc2ccccc2c1=O)NCC1CCCO1` (stereo not given) as the compound, how does the “activity change, negative = inhibition” value read?
**A.** inactive: 0.683% [at 46.1 µM]

**Q.** With `CCOC(=O)CC1=NN(c2ccccc2)C(=O)C1` as the compound, how does the “activity change, negative = inhibition” value read?
**A.** inactive: 9.52%

**Q.** With `Cc1nonc1NC(=O)CSc1nc2ccccc2cc1C#N` as the compound, how does the Potency read?
**A.** inconclusive: 15.8 µM [inhibitor, single point]

**Q.** Which Potency does the source give for `CC(C)COP(=O)(OCC(C)C)C(Nc1ccccc1)c1ccc2c(c1)OCO2` (stereo not given) here?
**A.** inconclusive: 12.6 µM [inhibitor, single point]

**Q.** With `COc1ccc(N2CCN(C(=O)CC34CC5CC(CC(C5)C3)C4)CC2)c([N+](=O)[O-])c1` as the compound, how does the Potency read?
**A.** inconclusive: 12.6 µM [inhibitor, single point]

**Q.** For `COc1ccc(C2CC(c3ccccc3)=NN2c2ccc(S(N)(=O)=O)cc2)cc1` (stereo not given), which Potency is on record?
**A.** inconclusive: 12.6 µM [activator, partial curve]

**Q.** Which “activity change, negative = inhibition” value does the source give for `CC1CCN(c2ccc(NC(=S)NC(=O)c3ccc(-c4cccc([N+](=O)[O-])c4)o3)cc2)CC1` here?
**A.** inactive: -7.06% [at 46.1 µM]

**Q.** How did the Potency turn out when `C=CCc1cccc(CNc2nc3ccccc3n2CCC)c1O` was run?
**A.** active: 10 µM

**Q.** `Cc1cc(C(=O)OCC(=O)NCc2ccco2)c(C)n1-c1ccccc1` was tested. Which Potency did it give?
**A.** inconclusive: 20 µM [activator, single point]

**Q.** Which Potency does the source give for `CCCCCOC(=O)c1ccc(NC(=O)c2ccco2)cc1` here?
**A.** inconclusive: 12.6 µM [inhibitor, single point]

**Q.** With `COC(=O)c1ccc(S(=O)(=O)N(Cc2ccccc2)Cc2ccccc2)n1C` as the compound, how does the Potency read?
**A.** inconclusive: 12.6 µM [activator, partial curve]

**Q.** How did the Potency turn out when `COC(=O)c1sccc1NC(=S)N1CCCCC1` was run?
**A.** inconclusive: 3.98 µM [inhibitor, single point]

**Q.** Which Potency does the source give for `COc1cccc(C(=O)OCCN2CCCCC2)c1` here?
**A.** inconclusive: 25.1 µM [activator, single point]

**Q.** Which Potency does the source give for `Cc1ccc(C2=NOC(=O)/C2=C\c2ccc(C)o2)cc1` here?
**A.** inconclusive: 12.6 µM [activator, partial curve]

**Q.** For `O=C(C1CCCCN1S(=O)(=O)c1ccccc1)N1CCN(C(c2ccccc2)c2ccccc2)CC1` (stereo not given), which Potency is on record?
**A.** inconclusive: 1.26 µM [inhibitor, full curve]

**Q.** How did the Potency turn out when `O=S(=O)(NC1CCc2ccccc21)c1ccc(S(=O)(=O)N2CCCC2)cc1` (stereo not given) was run?
**A.** inconclusive: 31.6 µM [inhibitor, single point]

**Q.** `COc1ccc(O[C@H]2C=C[C@@H](c3ccccc3)O[C@@H]2COC(=O)CC/C(C)=N/O[C@@H](C)CN2CCCCc3nc(C)c(C)cc32)cc1` was tested. Which Potency did it give?
**A.** active: 15.8 µM

**Q.** Which Potency does the source give for `O=C1CC(c2ccc(F)cc2)Cc2nc(NCc3ccco3)ncc21` (stereo not given) here?
**A.** inconclusive: 25.1 µM [activator, single point]

**Q.** `O=C(Cn1nnc(-c2ccccc2-n2cnnn2)n1)NCc1ccccc1` was tested. Which “activity change, negative = inhibition” value did it give?
**A.** inactive: -3.51% [at 46.1 µM]

**Q.** Which “activity change, negative = inhibition” value does the source give for `COCCOC(=O)C1=C(C)OC(N)=C(C#N)C1c1ccc2c(c1)OCO2` (stereo not given) here?
**A.** inactive: 5.18% [at 46.1 µM]

**Q.** For `COc1cccc(-c2cc(C(=O)N3CCCCC3C)no2)c1` (stereo not given), which Potency is on record?
**A.** inconclusive: 10 µM [inhibitor, single point]

**Q.** Which Potency does the source give for `COc1cc(-c2nc3cnccn3c2Nc2ccc(C)cc2)ccc1O` here?
**A.** inconclusive: 10 µM [inhibitor, single point]

**Q.** Which Potency does the source give for `O=S(=O)(c1cccs1)N1CN(Cc2ccccc2)c2nc3ccccc3nc21` here?
**A.** inconclusive: 10 µM [inhibitor, partial curve]

**Q.** Which Potency does the source give for `c1ccc(-c2nc(CSc3nnnn3-c3ccccc3)cs2)cc1` here?
**A.** inconclusive: 12.6 µM [inhibitor, partial curve]

**Q.** For `COc1cc(CN2CCN(c3ccccc3F)CC2)c([N+](=O)[O-])cc1OC`, which “activity change, negative = inhibition” value is on record?
**A.** inactive: 8.32%

**Q.** `CCc1nc(SCC(=O)Nc2cc(C)on2)n[nH]1` was tested. Which Potency did it give?
**A.** inconclusive: 3.16 µM [inhibitor, full curve, poor fit]

**Q.** With `c1ccc2c(c1)OC(CCCN1CCCCC1)c1ccccc1S2` (stereo not given) as the compound, how does the Potency read?
**A.** inconclusive: 25.1 µM [inhibitor, single point]

**Q.** How did the Potency turn out when `CCc1ccc2[nH]c(=O)c(CN(Cc3ccccc3)Cc3nnnn3Cc3ccco3)cc2c1` was run?
**A.** inconclusive: 12.6 µM [inhibitor, partial curve]

**Q.** How did the Potency turn out when `CCn1c(N2CCN(C(=S)NCCc3ccccc3)CC2)nc2ccccc21` was run?
**A.** inconclusive: 15.8 µM [inhibitor, single point]

**Q.** `CCOC(=O)C1=C(CN2CCc3ccccc32)NC(=O)NC1c1cccc([N+](=O)[O-])c1` (stereo not given) was tested. Which Potency did it give?
**A.** inconclusive: 12.6 µM [inhibitor, single point]

**Q.** With `O=C(O)c1c(Cl)c(Cl)c(Cl)c(Cl)c1C(=O)N1CCCC1` as the compound, how does the “activity change, negative = inhibition” value read?
**A.** inactive: -2.32% [at 46.1 µM]

**Q.** For `CCn1c(=O)cc(SCC(=O)NCc2cccnc2)c2ccccc21`, which Potency is on record?
**A.** inconclusive: 15.8 µM [inhibitor, partial curve, poor fit]

**Q.** For `O=C(Nc1ccc2c(c1)OCO2)c1ccc(Br)s1`, which “activity change, negative = inhibition” value is on record?
**A.** inactive: 7.97% [at 46.1 µM]

**Q.** `O=c1oc2ccccc2c(O)c1/C=N/c1ncccn1` was tested. Which “activity change, negative = inhibition” value did it give?
**A.** inactive: -0.685% [at 46.1 µM]

**Q.** For `O=C(NNc1ncc(C(F)(F)F)cc1Cl)c1c(Cl)cccc1Cl`, which Potency is on record?
**A.** inconclusive: 10 µM [inhibitor, single point]

**Q.** Which Potency does the source give for `CCN(c1ccccc1)S(=O)(=O)c1ccc(NC(=S)NC(=O)c2cccs2)cc1` here?
**A.** inconclusive: 12.6 µM [inhibitor, partial curve]

**Q.** For `O=C(N/N=C/C=C/c1ccccc1)c1n[nH]c2c1CCC2`, which “activity change, negative = inhibition” value is on record?
**A.** inactive: 9.51% [at 46.1 µM]

**Q.** For `O=C(Nc1nc2ccccc2c(=O)s1)c1ccco1`, which “activity change, negative = inhibition” value is on record?
**A.** inactive: 14%

**Q.** Which Potency does the source give for `CCCCn1ccc(O)c(Cc2ccc(F)cc2)c1=O` here?
**A.** inconclusive: 10 µM [activator, partial curve, poor fit]

**Q.** For `CNC(=O)C1(CC(C)C)C=CCN1C(C)=O` (stereo not given), which “activity change, negative = inhibition” value is on record?
**A.** inactive: 17.6%

**Q.** Which “activity change, negative = inhibition” value does the source give for `Cc1ccc(N(CC(=O)NN=C2CCN(C)CC2)S(=O)(=O)c2ccc(C)cc2)cc1` here?
**A.** inactive: 12%

— PubChem BioAssay AID1461 (National Center for Advancing Translational Sciences (NCATS), 2008)
